# Data taken from PubChem BioAssay (NCATS).
# Several values for one entry are separate records, joined by “and”; a condition that tells them apart may be missing. Identical values can stand only once. The list shows a part of the results. Shown are side measurements of this screen, not its main read-out; they come without a call. For part of these data: The list favours compounds with an active or inconclusive main result. Words in brackets tell the shape of the fitted curve; partial curves, single points and poor fits give uncertain potencies.
# Legend:
# [1] = target: Catechol O-methyltransferase (Homo sapiens) (UniProt P21964); experiment: Confirmatory Screen for Target Class Profiling of Small Molecule Inhibitors of Methyltransferases (AID 1745852); details: MTase-Glo luminescence, SAH detection, recombinant enzyme; measured here: COMT inhibition potency;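 note: inhibitor potency for blocking SAH production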
# Chain of UniProt P21964 (P21964 whole entry, looked up): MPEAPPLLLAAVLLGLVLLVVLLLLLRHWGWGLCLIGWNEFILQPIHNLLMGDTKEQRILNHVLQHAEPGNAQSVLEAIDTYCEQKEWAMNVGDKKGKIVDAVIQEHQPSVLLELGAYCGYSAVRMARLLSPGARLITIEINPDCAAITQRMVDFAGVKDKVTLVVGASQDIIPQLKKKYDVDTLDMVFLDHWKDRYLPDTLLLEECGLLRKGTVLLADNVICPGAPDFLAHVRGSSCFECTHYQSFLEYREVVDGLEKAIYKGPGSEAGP
# [2] = target: Histamine N-methyltransferase (Homo sapiens) (UniProt P50135); experiment: as above; details: MTase-Glo luminescence, SAH detection, recombinant enzyme; measured here: HNMT inhibition potency
# Chain of UniProt P50135 (P50135 whole entry, looked up): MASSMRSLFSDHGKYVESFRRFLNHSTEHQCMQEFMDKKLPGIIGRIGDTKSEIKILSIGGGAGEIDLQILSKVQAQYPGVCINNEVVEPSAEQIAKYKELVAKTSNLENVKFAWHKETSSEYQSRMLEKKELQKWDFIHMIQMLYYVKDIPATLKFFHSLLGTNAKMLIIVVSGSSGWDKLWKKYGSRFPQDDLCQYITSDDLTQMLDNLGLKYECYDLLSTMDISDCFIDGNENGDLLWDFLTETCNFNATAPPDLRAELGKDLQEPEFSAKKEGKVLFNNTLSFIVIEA
# [3] = target: Nicotinamide N-methyltransferase (Homo sapiens) (UniProt P40261); experiment: as above; details: MTase-Glo luminescence, SAH detection, recombinant enzyme; measured here: NNMT inhibition potency
# Chain of UniProt P40261 (P40261 whole entry, looked up): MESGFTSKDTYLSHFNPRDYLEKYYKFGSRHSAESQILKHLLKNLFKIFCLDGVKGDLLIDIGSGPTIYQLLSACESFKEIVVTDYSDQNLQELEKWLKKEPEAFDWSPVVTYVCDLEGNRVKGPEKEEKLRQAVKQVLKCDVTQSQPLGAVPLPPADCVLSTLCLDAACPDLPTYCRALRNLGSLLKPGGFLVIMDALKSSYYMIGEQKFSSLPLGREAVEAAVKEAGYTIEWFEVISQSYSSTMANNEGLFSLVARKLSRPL
# [4] = target: Phenylethanolamine N-methyltransferase (Homo sapiens) (UniProt P11086); experiment: as above; details: MTase-Glo luminescence, SAH detection, recombinant enzyme; measured here: PNMT inhibition potency
# Chain of UniProt P11086 (P11086 whole entry, looked up): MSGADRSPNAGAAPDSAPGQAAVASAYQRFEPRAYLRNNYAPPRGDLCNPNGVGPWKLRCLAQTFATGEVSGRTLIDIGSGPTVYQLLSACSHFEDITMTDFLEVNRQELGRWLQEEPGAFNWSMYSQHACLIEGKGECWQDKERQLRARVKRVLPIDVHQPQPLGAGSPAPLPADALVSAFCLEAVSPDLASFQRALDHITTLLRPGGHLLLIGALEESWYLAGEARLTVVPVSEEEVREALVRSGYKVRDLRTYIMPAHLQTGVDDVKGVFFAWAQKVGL
# [5] = qHTS drug screen for cell cycle checkpoint inhibitors in PARPi-resistant BRCA-mutant ovarian cancer cell lines. (AID 1963452); details: PEO1/OlaR viability, CellTiter-Glo luminescence, 96 h
# Method in brief: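 PEO1, PEO4 and PEO1/OlaR ovarian cancer cells, 600 per well, exposed 96 h at 37C to a dilution series. Viability read by CellTiter-Glo luminescence, normalized to DMSO and empty wells; activity summarized as Z-AUC.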
# [6] = qHTS for identification of novel therapeutic agents for treatment of microphthalmiaassociated transcription factor (MiT) renal cell carcinoma (RCC) (AID 1963991); details: CellTiter-Glo, 48 h; for z-score: stronger effect = lower value
# Method in brief: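 Curves over 11 concentrations were fitted to CellTiter-Glo luminescence, scaled between empty wells (0%) and DMSO (100%) viability. Cells were UOK109, UOK124 and UOK145 TFE3-fusion RCC lines at 500/well, exposed 48 hours at 37 C.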
# [7] = measured here: PEO1 parental viability
# [8] = TFE3-RCC UOK109 viability, measured here: UOK109 Z-AUC
# [9] = TFE3-RCC viability, measured here: UOK124 Z-AUC
# [10] = TFE3-RCC viability, measured here: UOK124 cell viability
# [11] = TFE3-RCC viability, measured here: UOK145 Z-AUC
# [12] = TFE3-RCC viability, measured here: UOK145 cell viability
# Tags give direction and shape of the fitted curve.
compound,measurement,setting,value
C/C(=N\N=C(N)N)c1cc(NC(=O)CCCCCCCCC(=O)Nc2cc(/C(C)=N/N=C(N)N)cc(/C(C)=N/N=C(N)N)c2)cc(/C(C)=N/N=C(N)N)c1,IC50,[1],"27.1 µM [falling, partial curve]"
same,IC50,[2],"15.2 µM [falling, partial curve]"
same,IC50,[3],"24.1 µM [falling, partial curve]"
same,IC50,[4],"21.5 µM [falling, partial curve]"
CC(C)(O)c1ccc2c(c1)ncn2-c1cccc(-c2ccccc2C#N)c1,IC50,[1],"24.1 µM [falling, partial curve]"
same,IC50,[2],"27.1 µM [falling, single point]"
same,IC50,[3],"24.1 µM [falling, partial curve]"
same,IC50,[4],"27.1 µM [falling, partial curve]"
O=C(NCCc1ccc(Cl)cc1)c1ccc2c(=O)[nH]c3c(C(=O)NC4CCCC4)sc(=S)n3c2c1,IC50,[1],"24.1 µM [falling, single point]"
same,IC50,[2],"30.4 µM [falling, single point]"
same,IC50,[3],"24.1 µM [falling, partial curve]"
same,IC50,[4],"27.1 µM [falling, partial curve]"
CC1CCCCCCCc2cc(O)cc(O)c2C(=O)O1 (configuration not stated),IC50,[1],"24.1 µM [falling, partial curve]"
same,IC50,[2],"21.5 µM [falling, partial curve]"
same,IC50,[3],"27.1 µM [falling, partial curve]"
same,IC50,[4],"27.1 µM [falling, partial curve]"
COc1ccc(-c2nc3ccncc3[nH]2)cc1,IC50,[1],"17.5 µM [falling, partial curve]"
same,IC50,[2],"15.6 µM [falling, partial curve]"
same,IC50,[3],"13.9 µM [falling, partial curve]"
same,IC50,[4],"17.5 µM [falling, partial curve]"
CC(C)CCNC(=O)c1ccc2c(=O)[nH]c3c(C(=O)NC4CCCC4)sc(=S)n3c2c1,IC50,[1],"27.1 µM [falling, partial curve]"
same,IC50,[2],"30.4 µM [falling, single point]"
same,IC50,[3],"24.1 µM [falling, partial curve]"
same,IC50,[4],"27.1 µM [falling, partial curve]"
O=C(NCc1ccc2c(c1)OCO2)c1sc(=S)n2c1[nH]c(=O)c1cc(Cl)ccc12,IC50,[1],"30.4 µM [falling, single point]"
same,IC50,[2],"42.9 µM [falling, single point]"
same,IC50,[3],"24.1 µM [falling, partial curve]"
same,IC50,[4],"34.1 µM [falling, single point]"
CN(C)c1ccc(NC(=O)NS(=O)(=O)c2ccc(Cl)cc2)cc1,IC50,[1],"19.2 µM [falling, partial curve]"
same,IC50,[2],"21.5 µM [falling, partial curve]"
same,IC50,[3],"21.5 µM [falling, partial curve, poor fit]"
same,IC50,[4],"3.83 µM [falling, full curve]"
COc1ccc(OC)c(NC(=O)c2sc(=S)n3c2[nH]c(=O)c2ccc(Cl)cc23)c1,IC50,[1],"21.5 µM [falling, partial curve]"
same,IC50,[2],"21.5 µM [falling, partial curve]"
same,IC50,[3],"27.1 µM [falling, partial curve]"
same,IC50,[4],"24.1 µM [falling, partial curve]"
O=C(NCCc1ccc(Cl)cc1)c1ccc2c(=O)[nH]c3c(C(=O)NCC4CCCO4)sc(=S)n3c2c1 (configuration not stated),IC50,[1],"24.1 µM [falling, single point]"
same,IC50,[2],"24.1 µM [falling, single point]"
same,IC50,[3],"24.1 µM [falling, partial curve]"
same,IC50,[4],"24.1 µM [falling, partial curve]"
CCCc1cc2c(-c3ccccc3)cc(=O)oc2cc1OCc1ccc(C(=O)O)o1,IC50,[1],"24.1 µM [falling, partial curve]"
same,IC50,[2],"27.1 µM [falling, single point]"
same,IC50,[3],"24.1 µM [falling, partial curve]"
same,IC50,[4],"24.1 µM [falling, partial curve]"
CC(C)CCNC(=O)c1ccc2c(=O)[nH]c3c(C(=O)NC(C)C)sc(=S)n3c2c1,IC50,[1],"24.1 µM [falling, partial curve]"
same,IC50,[2],"42.9 µM [falling, single point]"
same,IC50,[3],"24.1 µM [falling, single point]"
same,IC50,[4],"24.1 µM [falling, single point]"
COc1cccc(-c2cn(-c3ccc(CCN4CCC(O)CC4)cc3)c3ncnc(N)c23)c1,IC50,[1],"21.5 µM [falling, partial curve]"
same,IC50,[2],"19.2 µM [falling, partial curve]"
same,IC50,[3],"15.2 µM [falling, partial curve]"
same,IC50,[4],"21.5 µM [falling, partial curve]"
Nc1ncnc2c1c(-c1cccc(OCc3ccccc3)c1)cn2C1CC(CN2CCCC2)C1 (configuration not stated),IC50,[1],"24.1 µM [falling, partial curve]"
same,IC50,[2],"3.41 µM [falling, full curve]"
same,IC50,[3],"21.5 µM [falling, partial curve]"
same,IC50,[4],"1.71 µM [falling, full curve]"
same,AC50,[5]; [7],"11 µM [falling, partial curve, poor fit]"
same,AC50,[5]; measured here: PEO4 viability,"9.77 µM [falling, partial curve, poor fit]"
same,z-score,[6]; [8],0.101
same,z-score,[6]; [9],-0.33
same,AC50,[6]; [10],"16.6 µM [falling, partial curve]"
same,z-score,[6]; [11],0.063
same,AC50,[6]; [12],"23.5 µM [falling, partial curve]"
Cc1nc(C#Cc2ccnc(Cl)c2)c(C)n1-c1ccc(F)cc1,IC50,[1],"27.1 µM [falling, partial curve]"
same,IC50,[2],"27.1 µM [falling, partial curve]"
same,IC50,[3],"24.1 µM [falling, partial curve]"
same,IC50,[4],"27.1 µM [falling, partial curve]"
CCN1CCN(Cc2ccc(Nc3ncc(F)c(-c4cc(F)c5nc(C)n(C(C)C)c5c4)n3)nc2)CC1,IC50,[1],"13.6 µM [falling, partial curve]"
same,IC50,[2],"12.1 µM [falling, partial curve]"
same,IC50,[3],"17.1 µM [falling, partial curve]"
same,IC50,[4],"15.2 µM [falling, partial curve]"
same,AC50,[5]; [7],"11 µM [falling, partial curve]"
same,AC50,[5]; measured here: PEO4 viability,"15.5 µM [falling, partial curve]"
C=Cc1cc(O)cc2nc(-c3ccc(O)c(F)c3)oc12,IC50,[1],"24.1 µM [falling, partial curve]"
same,IC50,[2],"27.1 µM [falling, partial curve]"
same,IC50,[3],"27.1 µM [falling, single point]"
same,IC50,[4],"27.1 µM [falling, partial curve]"
same,AC50,[5]; measured here: PEO4 viability,"8.71 µM [falling, partial curve]"
N#CSc1cc(SC#N)c(N)nc1N,IC50,[1],"3.63 µM [falling, partial curve]"
same,IC50,[2],"10.2 µM [falling, single point]"
same,IC50,[3],"8.14 µM [falling, partial curve]"
same,IC50,[4],"2.04 µM [falling, full curve]"
C=CC(=O)Nc1cccc(Nc2nc(Nc3ccc(OCCOC)cc3)ncc2F)c1,IC50,[1],"21.5 µM [falling, partial curve]"
same,IC50,[2],"21.5 µM [falling, partial curve]"
same,IC50,[3],"19.2 µM [falling, partial curve]"
same,IC50,[4],"24.1 µM [falling, partial curve]"
same,AC50,[5]; [7],"5.49 µM [falling, partial curve]"
same,AC50,[5]; measured here: PEO4 viability,"6.92 µM [falling, partial curve]"
O=C(Nc1ccc2ncnc(N3CCCCC3)c2c1)c1cc(F)ccc1F,IC50,[1],"17.1 µM [falling, partial curve]"
same,IC50,[2],"19.2 µM [falling, partial curve]"
same,IC50,[3],"21.5 µM [falling, partial curve]"
same,IC50,[4],"15.2 µM [falling, partial curve]"
CC(C)N(CCCNC(=O)Nc1ccc(C(C)(C)C)cc1)C[C@H]1O[C@@H](n2cc(Br)c3c(N)ncnc32)[C@H](O)[C@@H]1O,IC50,[1],"21.5 µM [falling, partial curve]"
same,IC50,[2],"19.2 µM [falling, partial curve]"
same,IC50,[3],"19.2 µM [falling, partial curve]"
same,IC50,[4],"4.82 µM [falling, full curve]"
same,AC50,[5]; [7],"21.9 µM [falling, partial curve, poor fit]"
same,AC50,[5]; measured here: PEO4 viability,"21.9 µM [falling, single point]"
O=C(Nc1ccc2ncnc(N3CCCCC3)c2c1)C1CCCCC1,IC50,[1],"21.5 µM [falling, partial curve]"
same,IC50,[2],"19.2 µM [falling, partial curve]"
same,IC50,[3],"19.2 µM [falling, partial curve]"
same,IC50,[4],"17.1 µM [falling, partial curve]"
CN(Cc1cccs1)c1ncnc2ccc(-c3ccc4c(c3)OCO4)cc12,IC50,[1],"10.8 µM [falling, full curve]"
same,IC50,[2],"13.6 µM [falling, full curve]"
same,IC50,[3],"12.1 µM [falling, partial curve]"
same,IC50,[4],"10.8 µM [falling, partial curve]"
C[C@@H](Oc1cc(-c2cnn(C3CCNCC3)c2)cnc1N)c1c(Cl)ccc(F)c1Cl,IC50,[1],"21.5 µM [falling, partial curve] and 24.1 µM [falling, partial curve]"
same,IC50,[2],"21.5 µM [falling, partial curve]"
same,IC50,[3],"24.1 µM [falling, partial curve] and 21.5 µM [falling, partial curve]"
same,IC50,[4],"24.1 µM [falling, partial curve]"
same,AC50,[5]; [7],"17.4 µM [falling, single point]"
same,AC50,[5]; measured here: PEO4 viability,"8.71 µM [falling, partial curve]"
same,z-score,[6]; [8],-0.0469
same,z-score,[6]; [9],-0.357
same,AC50,[6]; [10],"18.7 µM [falling, partial curve]"
same,z-score,[6]; [11],0.302
same,AC50,[6]; [12],"23.5 µM [falling, partial curve]"
